# Test results as given in PubChem BioAssay AID493208 (National Center for Advancing Translational Sciences (NCATS), 2011).
# Screen size: about 44,000 compounds; about 340 (0.77%) were called active. Inconclusive results (about 5%) are left out. The call rests on the fitted dose curve; in most records, active means well fitted inhibition curve with a large enough effect; inconclusive means small, poorly fitted or top-dose-only effect; inactive means flat fitted curve, though single readings scatter. Some of the results follow.
# Test: Acumen qHTS Assay for Inhibitors of the mTORC1 Signaling Pathway in MEF (Tsc2-/-, p53-/-) Cells: Sytravon;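 further: plate controls were DMSO for no effect and rapamycin for full effect; nearly all actives have a fitted effect of over 50% in size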
# Conditions: phospho-rpS6 immunofluorescence/PI, 24 h; series mostly up to 38.3 µM; activity change, negative = inhibition: at the top concentration
# In short: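 Compounds act on Tsc2-/-, p53-/- fibroblasts carrying an empty vector for 24 h before fixation and dual staining for phospho-S6 and DNA (propidium iodide). Values are percentages of cells above a rapamycin-defined pS6/PI threshold.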
row,SMILES,"activity change, negative = inhibition"
1,O=C(CSc1nc2c([nH]c3ccccc32)c(=O)n1-c1ccccc1F)Nc1cccc(Cl)c1,inactive: -2.04%
2,CCC(=O)N1CCc2cc(S(=O)(=O)CCC(=O)Nc3cc(Cl)ccc3OC)ccc21,inactive: -1.74%
3,COc1cccc(N2CC(NC(=O)/C=C\c3ccccc3)CC2=O)c1 (configuration not stated),inactive: 2.01%
4,Cc1cccc(Cn2c(CN3CCC(C(=O)NC(C)C)CC3)cc3ccccc32)c1,inactive: -11.3%
5,COc1ccc(CNC(=O)C2CCN(S(=O)(=O)c3cccc(-c4noc(C)n4)c3)CC2)cc1,inactive: -8%
6,CCOc1ccc(CNC(=O)c2cc3c(=O)oc4ccc(C)cc4c3s2)cc1,inactive: -12.7%
7,Cc1ccccc1CNCCCSc1nnnn1C,inactive: 2.45%
8,Cc1ccc(NC(=O)CSCc2cc(=O)c3ccccc3[nH]2)c(C)c1,inactive: 0.084%
9,O=C(COCc1cc(-c2ccc(F)cc2)on1)Nc1cccc(C(F)(F)F)c1,inactive: -3.1%
10,CCCOc1ccc(C2C(=O)N(C3CCCCC3)CC(=O)N2C2CCCCC2)cc1OC (configuration not stated),inactive: 9%
11,COc1ccc(Cn2c(CO)cnc2SCc2ccccc2)cc1,inactive: -9.32%
12,Cc1ccc(-n2c(=O)c3c(C)c(C(=O)N(C)C)sc3n(Cc3ccccc3C)c2=O)cc1C,inactive: 1.86%
13,COc1ccc(-c2cn3c(n2)sc2cc(C(=O)NCCCN4CCN(C)CC4)ccc23)cc1,inactive: -0.974%
14,Cc1cccc(Nc2nc(-c3ccccc3)nc3ccccc23)c1,inactive: 7.17%
15,Cc1cccc(OC(=O)CSc2nnc(-c3cccs3)o2)c1C,inactive: 2.42%
16,CSc1ncc(Cl)c(C(=O)Nc2c(C(=O)c3ccc(Cl)cc3)oc3ccccc23)n1,inactive: -11%
17,Cc1ccc(-n2ncc(C(=O)N3CCN(c4ccccc4F)CC3)c2C2CCN(C(=O)OC(C)(C)C)CC2)cc1C,inactive: 3.89%
18,CCOC(=O)c1c(S(=O)(=O)N2CCCC(C(=O)Nc3cccc(CC)c3)C2)c(C)n(CC)c1C (configuration not stated),inactive: -28.7%
19,Cc1c(NC(=O)Cc2ccc(Cl)cc2)cccc1-c1nc2cccnc2s1,inactive: 4.86%
20,CCOC(=O)c1c(C)[nH]c(C)c1S(=O)(=O)NCC(=O)Nc1cccc(Cl)c1,inactive: -1.81%
21,Cc1c(CNC2CCCCCC2)c(C(=O)O)c(C)n1Cc1cccc(Cl)c1,inactive: -1.56%
22,Cc1cccc(CNC(=O)Cn2nc(C)c3nn(-c4ccc(Cl)cc4)c(C)c3c2=O)c1,inactive: -0.573%
23,O=C(CSc1nc(Nc2ccccc2)c2ccccc2n1)c1ccc(Cl)cc1,inactive: -0.364%
24,Cc1ccccc1Nc1c(-c2c[nH]c3ccccc23)nc2ccc(Cl)cn12,inactive: -4.48%
25,Cc1cc(C)cc(NC(=O)NCc2c(-n3cccc3)sc3c2CCCC3)c1,inactive: 0.0685%

row,SMILES,"activity change, negative = inhibition"
1,COC(=O)c1scc(-c2ccc(C)cc2)c1S(=O)(=O)Nc1cc(C)c(Cl)cc1OC,inactive: 0%
2,Clc1cccc(CNCCCSc2nnnn2-c2ccccc2)c1,inactive: -12.1%
3,Cc1cccc(N2CCN(C(=O)CCS(=O)(=O)c3ccc4c(c3)CC(=O)N4C)CC2C)c1 (configuration not stated),inactive: 9.96%
4,Cc1cccc(C(c2sc3nc(-c4ccco4)nn3c2O)N2CCOCC2)c1 (configuration not stated),inactive: -1.25%
5,CCCCOC(=O)c1ccc(NC(=O)c2ccc3c(c2)CCN3S(C)(=O)=O)cc1,inactive: -3.63%
6,CC(=O)N1CCN(c2csc3ccc(Cl)cc3c2=O)CC1,inactive: -16.6%
7,Cc1ccc(NS(=O)(=O)c2ccc3c(c2)n(C)c(=O)n3C)c(C)c1,inactive: -3.22%
8,O=C(NCCc1cccs1)c1ccc(Cn2c(SCc3cccc(F)c3)nc3cccnc32)cc1,inactive: -0.79%
9,Fc1cccc(CN2CCc3nc(Nc4ccc5c(c4)OCCO5)ncc3C2)c1F,inactive: 18.6%
10,Cc1ccccc1S(=O)Cc1ccc(C(=O)NCc2ccccc2Cl)o1 (configuration not stated),inactive: -0.0503%
11,Cc1ccc(CSC2=NC(C)(C)Nc3ccccc32)c(C)c1,inactive: -1.12%
12,COc1ccc(-c2csc3ncnc(Nc4ccccc4)c23)cc1,inactive: 0%
13,CCOc1ccccc1NC(=O)Cn1c(=O)oc2ccccc21,inactive: -1.42%
14,COc1ccc(-c2noc(N3CCC(C(=O)N4CCN(c5cccc(OC)c5)CC4)CC3)n2)cc1,inactive: -10.8%
15,CCOC(=O)c1c(-c2ccccc2)oc2ccc(OCc3ccccc3Br)cc12,inactive: 8.2%
16,COc1ccc(NC(=O)Cn2cc(C(=O)c3ccc(C)c(C)c3)c(=O)c3cc(OC)ccc32)cc1,inactive: -2.17%
17,COc1cc(C2C=C(C(=O)O)Nc3ncnn32)ccc1O (configuration not stated),inactive: -3.29%
18,CCOc1ccc2c(c1)c(=O)c(C(=O)c1ccc(CC)cc1)cn2CC(=O)Nc1ccc2c(c1)OCCO2,inactive: 2.96%
19,COc1cccc(NC(=O)Cn2c(=O)n(CCC(=O)NCc3ccccc3OC)c(=O)c3ccccc32)c1,inactive: -10.4%
20,COc1ccc(Cl)cc1NC(=O)Cn1c(=O)n2nc(-c3ccccc3)nc2c2ccccc21,inactive: -11.2%
21,COc1ccc(C)c2sc(N(Cc3cccnc3)C(=O)c3cccs3)nc12,inactive: 3.08%
22,Cc1ccc(NC(=O)Cn2cc3c(n2)CCCC3)cc1Cl,inactive: 1.12%
23,CCN1CCc2c(sc(-n3cccc3)c2C(C)NC(=O)Nc2ccc(C(=O)OC)cc2)C1 (configuration not stated),inactive: -9.81%
24,COc1ccc(CNS(=O)(=O)c2ccc(-c3cc(C(F)(F)F)on3)s2)cc1OC,inactive: -10.4%
25,COc1ccc(CNC(=O)c2nn(C)c3c2CSc2ccccc2-3)cc1,inactive: -2.81%

row,SMILES,"activity change, negative = inhibition"
1,O=C(Nc1cccc(F)c1)c1cnc2sc(N3CCCC3)nn2c1=O,inactive: 5.01%
2,COc1ccc(-c2csc(-c3c(N)c(C(=O)c4ccc(OC)c(OC)c4)n4ccccc34)n2)cc1,inactive: 1.35%
3,COc1ccc(N(C)S(=O)(=O)c2ccc3c(c2)CCN3C(=O)CCC(=O)O)cc1,inactive: 1.68%
4,Cc1ccc(NC(=O)Cn2c(=O)n(Cc3ccccc3)c(=O)c3c(C)c(C(=O)N(C)C)sc32)c(C)c1,inactive: -0.623%
5,COc1ccc(NC(=O)c2ccco2)cc1NC(=O)c1ccccc1[N+](=O)[O-],inactive: -10.2%
6,CCc1cccc(C)c1Nc1nn2c(=O)c3ccccc3nc2s1,inactive: 0.632%
7,COc1cc(-c2cc(OC)c3c(C)oc(C)c3c(=O)c2)ccc1OC(=O)c1cccc(C)c1,inactive: 0.0686%
8,Cc1nn(S(=O)(=O)c2ccc(F)cc2)c(C)c1S(=O)(=O)N1CCCCCC1,inactive: 2.36%
9,Cc1ccc(CNC(=O)c2ccc3c(c2)c(C)c(C)n3Cc2ccc(Cl)cc2)o1,inactive: -3.41%
10,CCCc1cc(=O)[nH]c(SCc2nc(-c3ccc(OCC)cc3)no2)n1,inactive: 4.63%
11,Cc1ccc(-c2noc(-c3ccc(N4CCCC4)c([N+](=O)[O-])c3)n2)cc1,inactive: 0%
12,Cc1ccc(C(=O)Nc2c(C(=O)Nc3ccc(C)c(C)c3)sc3nc(C)cc(C)c23)cc1,inactive: -1.12%
13,Cc1ccc(C2C=C(c3ccccc3)Nc3nc(NS(C)(=O)=O)nn32)cc1 (configuration not stated),inactive: 2.69%
14,Cc1c(-c2ccccc2)c(=O)oc2c(CN3CCOCC3)c(O)ccc12,inactive: 3.03%
15,COc1ccc(NC(=O)C2CCN(c3cc(C)nc4c(-c5ccc(Cl)cc5)c(C)nn34)CC2)cc1,inactive: -7.06%
16,CCOc1ccc(C2C(C(=O)Nc3ccc(OC)cc3)=C(C)Nc3nc(CCCO)nn32)cc1 (configuration not stated),inactive: -12.4%
17,CCc1cccc(C)c1NC(=O)CSc1nc2ccncc2[nH]1,inactive: -0.4%
18,COc1cccc(NS(=O)(=O)c2ccc3[nH]cc(C(=O)NC(C)c4ccccc4)c(=O)c3c2)c1 (configuration not stated),inactive: -12.7%
19,CCOC(=O)C1CCN(Cc2cn3c(-c4ccc(OC)cc4)nnc3s2)CC1,inactive: 0.128%
20,Cc1cccc(NC(=O)c2cn(-c3ccccc3)nc2-c2ccccc2)c1C,inactive: 1.69%
21,Cc1ccccc1CN1CCCN(CC(=O)Nc2ccc(F)cc2)S1(=O)=O,inactive: 3.68%
22,Cc1ccc(NC(=O)Cn2c(=O)n(Cc3ccc4c(c3)OCO4)c(=O)c3oc4ccccc4c32)cc1C,inactive: -3.2%
23,Cc1ccc(OCCCCn2c(-c3ccc(Cl)cc3)nc3ccccc3c2=O)cc1,inactive: -9.48%
24,Cc1ccc(/C=C/C(=O)Nc2ccc3nc(N4CCC(C)CC4)cc(C)c3c2)cc1,inactive: -5.62%
25,CCOc1ccc(C(=O)Nc2ccc3nc(N(CC)CC)cc(C)c3c2)cc1,inactive: -9.88%

row,SMILES,"activity change, negative = inhibition"
1,Cc1cc(N2CCC(C(=O)Nc3ccc(F)cc3F)CC2)n2nc(C)c(-c3ccc(Cl)cc3)c2n1,inactive: 1.32%
2,Cn1c(=O)oc2cc(S(=O)(=O)NC(Cc3ccccc3)C(=O)Nc3ccc(F)c(Cl)c3)ccc21 (configuration not stated),inactive: -2.02%
3,CCN(c1cccc(C)c1)S(=O)(=O)c1cc2c(cc1C)n(C)c(=O)c(=O)n2C,inactive: -0.986%
4,CCOc1cccc2sc(NC(=O)c3ccc(S(=O)(=O)N4CCCCC4C)cc3)nc12 (configuration not stated),inactive: 0.534%
5,O=C(c1cc(-c2ccc(Cl)cc2)n[nH]1)N1CCN(S(=O)(=O)c2ccc(Br)s2)CC1,inactive: -15.4%
6,CCOC(=O)c1c(C)[nH]c(C)c1S(=O)(=O)N1CCN(c2cc(Cl)ccc2C)CC1,inactive: 3.75%
7,Cc1nnc(NC(=O)c2nc(SC(C)C)ncc2Cl)s1,inactive: 1.85%
8,Clc1ccccc1Cn1c(-c2cccs2)nc2ccccc21,inactive: 1.78%
9,CCOc1ccc(NC(=O)c2sc(-n3nc(C)c(Cc4ccc(Cl)cc4)c3C)nc2C)cc1,inactive: -1.57%
10,CCOC(=O)c1c(-c2ccc(C)cc2)csc1NC(=O)c1cc(-c2ccc(OC)cc2)on1,inactive: -1.78%
11,COc1ccc(CCNS(=O)(=O)c2c(C)nc3sc(C)cn3c2=O)cc1OC,inactive: -10.7%
12,Cc1cc(Nc2cccc(C(=O)O)c2)n2nc(C)nc2n1,inactive: 0.0442%
13,Cc1cccc(NC(=O)CN(C)S(=O)(=O)c2ccc3c(c2)c(=O)n(C)c(=O)n3C)c1C,inactive: -12.6%
14,CCCn1c2ccccc2c2cnn(CC(=O)NCCN(CC)CC)c(=O)c21,inactive: -16.8%
15,COc1ccc(CCNC(=O)c2ccc3c(c2)N=C(C)c2ccccc2S3)cc1OC,inactive: -24.1%
16,COc1ccc(-c2nc3ccccc3o2)cc1NC(=O)c1cccnc1,inactive: 2%
17,COc1ccc(NC(=O)NC(C)c2c(-n3cccc3)sc(C)c2C)cc1OC (configuration not stated),inactive: 0.147%
18,CCOc1c(Cl)cc(CNc2ccc3[nH]c(=O)[nH]c3c2)cc1OC,inactive: -15.7%
19,CCN(CC)CCCNC(=O)c1ccc2c(c1)sc1nc(-c3ccc(C)cc3)cn12,inactive: 5.52%
20,CCCCOc1ccc(C(=O)Nc2cc(-c3cn4cccnc4n3)ccc2OC)cc1,inactive: -5.64%
21,CCOC(=O)c1[nH]c2c(c1Cc1ccccc1)C(=O)CC(c1ccc(C(C)(C)C)cc1)C2 (configuration not stated),inactive: -24.6%
22,CCOC(=O)C1CCN(C(=O)c2cnn(-c3ccc(F)cc3)c2-n2cccc2)CC1,inactive: 1.17%
